Experiments:
Assay in all cases: cell-based or functional assay
Human BMP1-1 = biological target: T1, Human BMP1-1 (human, UniProt P13497-2 121-730, limits assumed)
T1 sequence (looked up): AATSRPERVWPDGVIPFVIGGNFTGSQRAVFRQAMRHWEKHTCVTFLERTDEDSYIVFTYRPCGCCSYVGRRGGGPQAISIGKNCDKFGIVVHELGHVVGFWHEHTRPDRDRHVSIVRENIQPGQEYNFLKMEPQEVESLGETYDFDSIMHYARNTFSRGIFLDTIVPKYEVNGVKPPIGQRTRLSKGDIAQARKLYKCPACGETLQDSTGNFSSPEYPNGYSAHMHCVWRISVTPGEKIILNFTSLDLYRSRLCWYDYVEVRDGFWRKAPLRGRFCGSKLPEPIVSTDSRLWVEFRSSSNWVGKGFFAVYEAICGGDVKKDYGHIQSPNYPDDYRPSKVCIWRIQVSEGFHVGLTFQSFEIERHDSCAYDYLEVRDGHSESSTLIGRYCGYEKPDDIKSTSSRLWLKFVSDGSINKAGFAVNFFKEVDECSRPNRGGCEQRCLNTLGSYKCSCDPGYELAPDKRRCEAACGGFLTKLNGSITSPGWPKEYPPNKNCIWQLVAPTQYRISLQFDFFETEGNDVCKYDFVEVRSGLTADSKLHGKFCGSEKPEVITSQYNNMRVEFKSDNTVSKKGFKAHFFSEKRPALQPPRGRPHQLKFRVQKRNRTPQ

Human TLL2 = biological target: T2, Human TLL2 (human, UniProt Q9Y6L7 150-1015, limits assumed)
T2 sequence (looked up): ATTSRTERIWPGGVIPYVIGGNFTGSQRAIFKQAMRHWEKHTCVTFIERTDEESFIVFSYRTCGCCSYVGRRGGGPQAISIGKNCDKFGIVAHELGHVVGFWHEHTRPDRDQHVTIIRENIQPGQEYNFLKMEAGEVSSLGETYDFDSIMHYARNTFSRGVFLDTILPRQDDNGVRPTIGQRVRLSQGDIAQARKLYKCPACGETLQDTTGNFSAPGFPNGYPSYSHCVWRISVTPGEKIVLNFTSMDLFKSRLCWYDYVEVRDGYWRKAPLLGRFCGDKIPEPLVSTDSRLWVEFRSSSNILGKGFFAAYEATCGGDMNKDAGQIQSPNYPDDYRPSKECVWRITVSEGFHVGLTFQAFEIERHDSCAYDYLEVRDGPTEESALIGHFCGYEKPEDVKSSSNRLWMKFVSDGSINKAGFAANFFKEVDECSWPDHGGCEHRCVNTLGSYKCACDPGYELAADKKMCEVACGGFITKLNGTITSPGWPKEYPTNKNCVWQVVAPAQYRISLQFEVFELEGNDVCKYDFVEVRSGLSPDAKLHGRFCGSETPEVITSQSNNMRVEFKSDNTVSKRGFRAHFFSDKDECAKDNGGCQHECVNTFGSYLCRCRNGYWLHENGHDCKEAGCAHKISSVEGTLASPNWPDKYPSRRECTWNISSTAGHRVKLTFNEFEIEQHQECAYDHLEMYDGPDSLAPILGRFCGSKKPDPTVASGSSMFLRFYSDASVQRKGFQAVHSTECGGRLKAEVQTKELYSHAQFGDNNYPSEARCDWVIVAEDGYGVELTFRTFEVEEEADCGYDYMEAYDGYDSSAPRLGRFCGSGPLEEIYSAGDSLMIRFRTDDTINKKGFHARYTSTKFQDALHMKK

Human TLL1 = biological target: T3, Human TLL1 (human, UniProt O43897 148-1013, limits assumed)
T3 sequence (looked up): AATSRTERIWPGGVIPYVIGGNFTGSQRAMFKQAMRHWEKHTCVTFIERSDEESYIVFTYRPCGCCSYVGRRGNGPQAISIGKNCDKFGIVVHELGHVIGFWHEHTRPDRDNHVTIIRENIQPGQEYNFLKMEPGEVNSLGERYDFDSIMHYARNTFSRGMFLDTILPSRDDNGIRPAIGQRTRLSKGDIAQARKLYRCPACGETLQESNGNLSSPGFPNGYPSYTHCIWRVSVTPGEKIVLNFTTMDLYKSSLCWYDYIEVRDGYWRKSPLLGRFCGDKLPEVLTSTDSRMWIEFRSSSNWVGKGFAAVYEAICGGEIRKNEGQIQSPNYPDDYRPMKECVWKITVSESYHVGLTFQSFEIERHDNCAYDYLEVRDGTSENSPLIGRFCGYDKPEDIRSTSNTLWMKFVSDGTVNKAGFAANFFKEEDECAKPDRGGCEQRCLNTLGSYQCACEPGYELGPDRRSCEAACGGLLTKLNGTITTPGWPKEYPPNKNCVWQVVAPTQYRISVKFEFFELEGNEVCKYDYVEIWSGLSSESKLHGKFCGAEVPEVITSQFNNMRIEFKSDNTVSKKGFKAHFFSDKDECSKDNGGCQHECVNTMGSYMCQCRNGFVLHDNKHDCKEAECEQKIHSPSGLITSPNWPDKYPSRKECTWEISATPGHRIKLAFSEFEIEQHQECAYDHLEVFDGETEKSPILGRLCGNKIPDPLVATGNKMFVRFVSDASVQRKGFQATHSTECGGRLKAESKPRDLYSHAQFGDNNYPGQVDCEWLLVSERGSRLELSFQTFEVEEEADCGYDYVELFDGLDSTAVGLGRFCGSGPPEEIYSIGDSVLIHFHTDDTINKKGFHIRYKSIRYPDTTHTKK

- IC50, FRET enzyme activity, 62.5 pM huBMP1 (Human BMP1-1): 0.4 nM
- IC50, FRET enzyme activity, 500 pM huTLL-2 (Human TLL2): ≥ 398 nM
- IC50, FRET enzyme activity, 250 pM biotinylated huTLL-1 (Human TLL1): 0.14 nM
B1: 13Y039-3E07-2944 (antibody, human IgG1, kappa)
heavy: QVQLQQWGAGLLKPSETLSLTCAVYGGSFFGDYWSWIRQPPGKGLEWIGEIDWSGATNYNPSLKSRVTISVDTSKNQFSLKLSSVTAADTAVYYCARGGSKELSFDIWGQGTMVTVSS[gap - human IgG1 constant region with L235A G237A (EU numbers)]
light: DIQMTQSPSSLSASVGDRVTITCQASQDIANYLNWYQQKPGKAPKLLIYDASNLETGVPSRFSGSGSGTDFTFTISSLQPEDIATYYCQQADTLPFTFGGGTKVEIKRTVAAPSVFIFPPSDEQLKSGTASVVCLLNNFYPREAKVQWKVDNALQSGNSQESVTEQDSKDSTYSLSSTLTLSKADYEKHKVYACEVTHQGLSSPVTKSFNRGEC
notes: Fully human IgG1 LAGA, kappa; HEK expressed; also called HEK-expressed 13Y039-3E07-2944
